Assay results reported in the supplement of paper PMC8728848.
Some of the results follow.

How the values were obtained:
Test in all cases: glycan array binding signal (z-score within array); higher = stronger binding
Details in all cases: glycan notation: IUPAC condensed, linker removed
[1] = target: Neu5Ac(a2-3)Gal(b1-3)GlcNAc
Procedure, shortened: (§1)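 From the Consortium for Functional Glycomics database, 3228 arrays were curated, keeping only those whose protein sequence was available. Binding is given as a within-array Z-score averaged across arrays sharing a protein sequence and across linkers. Negative Z-scores can be read as non-binding.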

[2] = target: Neu5Ac(a2-3)Gal(b1-3)GlcNAc(b1-2)Man
Procedure, shortened: as §1

[3] = target: Neu5Ac(a2-3)Gal(b1-3)GlcNAc(b1-2)Man(a1-3)[GlcNAc(b1-4)][Neu5Ac(a2-3)Gal(b1-3)GlcNAc(b1-2)Man(a1-6)]Man(b1-4)GlcNAc(b1-4)GlcNAc
Procedure, shortened: as §1

[4] = target: Neu5Ac(a2-3)Gal(b1-3)GlcNAc(b1-2)Man(a1-3)[Neu5Ac(a2-3)Gal(b1-3)GlcNAc(b1-2)Man(a1-6)]Man(b1-4)GlcNAc(b1-4)GlcNAc
Procedure, shortened: as §1

[5] = target: Neu5Ac(a2-3)Gal(b1-3)GlcNAc(b1-3)Gal(b1-3)GlcNAc
Procedure, shortened: as §1

[6] = target: Neu5Ac(a2-3)Gal(b1-3)GlcNAc(b1-3)Gal(b1-4)GlcNAc
Procedure, shortened: as §1

[7] = target: Neu5Ac(a2-3)Gal(b1-3)GlcNAc(b1-3)GalNAc
Procedure, shortened: as §1

[8] = target: Neu5Ac(a2-3)Gal(b1-3)GlcNAc(b1-4)Gal(b1-4)Glc
Procedure, shortened: as §1

[9] = target: Neu5Ac(a2-3)Gal(b1-3)GlcNAc(b1-6)GalNAc
Procedure, shortened: as §1

[10] = target: Neu5Ac(a2-3)Gal(b1-3)GlcNAc6S
Procedure, shortened: as §1

[11] = target: Neu5Ac(a2-3)Gal(b1-3)[Fuc(a1-4)]GlcNAc
Procedure, shortened: as §1

[12] = target: Neu5Ac(a2-3)Gal(b1-3)[Fuc(a1-4)]GlcNAc(b1-3)Gal(b1-3)[Fuc(a1-4)]GlcNAc
Procedure, shortened: as §1

[13] = target: Neu5Ac(a2-3)Gal(b1-3)[Fuc(a1-4)]GlcNAc(b1-3)Gal(b1-4)[Fuc(a1-3)]GlcNAc
Procedure, shortened: as §1

[14] = target: Neu5Ac(a2-3)Gal(b1-3)[GlcNAc(b1-6)]GalNAc
Procedure, shortened: as §1

[15] = target: Neu5Ac(a2-3)Gal(b1-3)[Neu5Ac(a2-3)Gal(b1-4)]GlcNAc
Procedure, shortened: as §1

[16] = target: Neu5Ac(a2-3)Gal(b1-3)[Neu5Ac(a2-6)]GalNAc
Procedure, shortened: as §1

[17] = target: Neu5Ac(a2-3)Gal(b1-3)[Neu5Ac(a2-6)]GlcNAc(b1-3)[Fuc(a1-3)[Gal(b1-4)]GlcNAc(b1-6)]Gal(b1-4)Glc
Procedure, shortened: as §1

[18] = target: Neu5Ac(a2-3)Gal(b1-3)]Neu5Ac(a2-3)Gal(b1-4)]GlcNAc
Procedure, shortened: as §1

[19] = target: Neu5Ac(a2-3)Gal(b1-4)Glc
Procedure, shortened: as §1

[20] = target: Neu5Ac(a2-3)Gal(b1-4)GlcNAc
Procedure, shortened: as §1

[21] = target: Neu5Ac(a2-3)Gal(b1-4)GlcNAc(b1-2)Man
Procedure, shortened: as §1

[22] = target: Neu5Ac(a2-3)Gal(b1-4)GlcNAc(b1-2)Man(a1-3)[GlcNAc(b1-4)][Neu5Ac(a2-3)Gal(b1-4)GlcNAc(b1-2)Man(a1-6)]Man(b1-4)GlcNAc(b1-4)GlcNAc
Procedure, shortened: as §1

[23] = target: Neu5Ac(a2-3)Gal(b1-4)GlcNAc(b1-2)Man(a1-3)[Neu5Ac(a2-3)Gal(b1-4)GlcNAc(b1-2)Man(a1-6)]Man(b1-4)GlcNAc(b1-4)GlcNAc
Procedure, shortened: as §1

[24] = target: Neu5Ac(a2-3)Gal(b1-4)GlcNAc(b1-2)Man(a1-3)[Neu5Ac(a2-3)Gal(b1-4)GlcNAc(b1-2)Man(a1-6)]Man(b1-4)GlcNAc(b1-4)[Fuc(a1-6)]GlcNAc
Procedure, shortened: as §1

[25] = target: Neu5Ac(a2-3)Gal(b1-4)GlcNAc(b1-2)Man(a1-3)[Neu5Ac(a2-6)Gal(b1-4)GlcNAc(b1-2)Man(a1-6)]Man(b1-4)GlcNAc(b1-4)GlcNAc
Procedure, shortened: as §1

[26] = target: Neu5Ac(a2-3)Gal(b1-4)GlcNAc(b1-2)[Neu5Ac(a2-3)Gal(b1-4)GlcNAc(b1-4)]Man(a1-3)[GlcNAc(b1-4)][Neu5Ac(a2-3)Gal(b1-4)GlcNAc(b1-2)[Neu5Ac(a2-3)Gal(b1-4)GlcNAc(b1-6)]Man(a1-6)]Man(b1-4)GlcNAc(b1-4)GlcNAc
Procedure, shortened: as §1

[27] = target: Neu5Ac(a2-3)Gal(b1-4)GlcNAc(b1-2)[Neu5Ac(a2-3)Gal(b1-4)GlcNAc(b1-4)]Man(a1-3)[GlcNAc(b1-4)][Neu5Ac(a2-3)Gal(b1-4)GlcNAc(b1-4)Man(a1-6)]Man(b1-4)GlcNAc(b1-4)GlcNAc
Procedure, shortened: as §1

[28] = target: Neu5Ac(a2-3)Gal(b1-4)GlcNAc(b1-2)[Neu5Ac(a2-3)Gal(b1-4)GlcNAc(b1-6)]Man(a1-6)[Neu5Ac(a2-3)Gal(b1-4)GlcNAc(b1-2)Man(a1-3)]Man(b1-4)GlcNAc(b1-4)GlcNAc
Procedure, shortened: as §1

[29] = target: Neu5Ac(a2-3)Gal(b1-4)GlcNAc(b1-2)[Neu5Ac(a2-3)Gal(b1-4)GlcNAc(b1-6)]Man(a1-6)[Neu5Ac(a2-3)Gal(b1-4)GlcNAc(b1-2)Man(a1-3)][GlcNAc(b1-4)]Man(b1-4)GlcNAc(b1-4)GlcNAc
Procedure, shortened: as §1

[30] = target: Neu5Ac(a2-3)Gal(b1-4)GlcNAc(b1-3)Gal
Procedure, shortened: as §1

[31] = target: Neu5Ac(a2-3)Gal(b1-4)GlcNAc(b1-3)Gal(b1-3)GlcNAc
Procedure, shortened: as §1

[32] = target: Neu5Ac(a2-3)Gal(b1-4)GlcNAc(b1-3)Gal(b1-4)GlcNAc
Procedure, shortened: as §1

[33] = target: Neu5Ac(a2-3)Gal(b1-4)GlcNAc(b1-3)Gal(b1-4)GlcNAc(b1-2)Man(a1-3)[Neu5Ac(a2-3)Gal(b1-4)GlcNAc(b1-3)Gal(b1-4)GlcNAc(b1-2)Man(a1-6)]Man(b1-4)GlcNAc(b1-4)GlcNAc
Procedure, shortened: as §1

B1: HHA (Hippeastrum hybrid) (protein)
chain: MQQDCNLVLYDVDKPIWASNTGGLARDCHLNMQSDGNLVVYAPRNQVIWASNTQGENGNYVCILQKDRNVVIYGTARWATGTNIHGAGIVGVPGSAPQNTTAEMIKLVRKYLITK
glycan array binding signal (z-score) [1]: -0.217
glycan array binding signal (z-score) [2]: -0.196
glycan array binding signal (z-score) [3]: -0.096
glycan array binding signal (z-score) [4]: -0.202
glycan array binding signal (z-score) [5]: -0.196
glycan array binding signal (z-score) [6]: -0.208
glycan array binding signal (z-score) [7]: -0.092
glycan array binding signal (z-score) [8]: -0.158
glycan array binding signal (z-score) [9]: -0.216
glycan array binding signal (z-score) [10]: -0.188
glycan array binding signal (z-score) [11]: -0.214
glycan array binding signal (z-score) [12]: -0.132
glycan array binding signal (z-score) [13]: -0.14
glycan array binding signal (z-score) [14]: -0.214
glycan array binding signal (z-score) [15]: -0.269
glycan array binding signal (z-score) [16]: -0.203
glycan array binding signal (z-score) [17]: -0.213
glycan array binding signal (z-score) [18]: -0.196
glycan array binding signal (z-score) [19]: -0.2
glycan array binding signal (z-score) [20]: -0.177
glycan array binding signal (z-score) [21]: -0.185
glycan array binding signal (z-score) [22]: -0.22
glycan array binding signal (z-score) [23]: -0.215
glycan array binding signal (z-score) [24]: -0.214
glycan array binding signal (z-score) [25]: -0.22
glycan array binding signal (z-score) [26]: -0.213
glycan array binding signal (z-score) [27]: -0.218
glycan array binding signal (z-score) [28]: -0.086
glycan array binding signal (z-score) [29]: -0.221
glycan array binding signal (z-score) [30]: -0.221
glycan array binding signal (z-score) [31]: -0.215
glycan array binding signal (z-score) [32]: -0.21
glycan array binding signal (z-score) [33]: -0.067
